Source: patent US12553059B2, “Plant serine proteases” (priority 2018, dated 2026)

What was measured:
SBT2 (SEQ ID No. 14) = experiment: Kinetic analysis of protease-inhibitor interactions, SBT2; type: biochemical, Nicotiana benthamiana; conditions: recombinant inhibitor from E. coli; substrate Abz-VILDAVRA-Y(NO2)
Procedure: (§1) These assays were performed as described (Hohl M et al., 2017, J. Biol. Chem. 292, 6389-6401). A fluorogenic peptide substrate, Abz-[…]-Y(NO2) (SEQ ID NO: 37), was used for measuring the enzymatic activity of the subtilisin-like serine proteases tested. Recombinant inhibitors (prepared as described in Hohl M et al., 2017, J. Biol. Chem. 292, 6389-6401) were added in serial dilutions. Substrate cleavage was monitored in an Infinite M200 Pro microplate reader as increase in relative fluorescence (λex=320 nm; λem=420 nm). Inhibition constants (Ki) were calculated using the Morrison equation.

SBT1 (SEQ ID No. 2) = experiment: Kinetic analysis of protease-inhibitor interactions, SBT1; type: biochemical, Nicotiana benthamiana; conditions: recombinant inhibitor from E. coli; substrate Abz-VILDAVRA-Y(NO2)
Procedure: as §1

binding affinity to / inhibition of SBT2 (SBT2 (SEQ ID No. 14)): high affinities | binding affinity to / inhibition of SBT1 (SBT1 (SEQ ID No. 2)): high affinities
B1: S12: S. lycopersicum subtilisin propeptide-like inhibitor, SEQ ID No. 34, recombinant from E. coli (protein)
chain: MQKIQIIFLVFLLLFVADCEEAKVYIVFTENPQPKEFHIKTLASVLGSEDAAREALIYSYKHVISGFAARLTPEQVSELAKKPGVLEIVPSRTYHLDGPKLK
modifications: Protease inhibitor
